Measurements as given in the supplement of paper PMC3724861.
The other results are listed elsewhere or left out.

System: T1, Caupolican (Caup) homeodomain DNA-binding domain
T1 sequence: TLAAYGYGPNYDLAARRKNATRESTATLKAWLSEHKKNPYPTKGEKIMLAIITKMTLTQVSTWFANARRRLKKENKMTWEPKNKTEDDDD
Assay: PBM E-score (8-mer, recovered from the published 9-mer minima) (E-score (dimensionless, -0.5 to 0.5)); Drosophila protein; higher = stronger relative binding preference, active = 0.31 or more
Summary of the method: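 Caup's homeodomain DNA-binding domain (residues 214-303) was produced by in vitro transcription and translation and applied at 100 nM to custom-designed protein binding microarrays. Each value is an enrichment score giving relative binding preference for a short DNA word; higher means stronger. Published 9-mer scores were the minimum of their two constituent 8-mer scores, and the 8-mer values were recovered from those minima. A cutoff of 0.31 marks candidate binding sequences.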

| Sequence | PBM E-score |
| --- | --- |
| ATCCGGTG | inactive: 0.0268 |
| AAGCGCTT | ≥ -0.0194 |
| TCCGTTAA | inactive: 0.0513 |
| CTTATGTC | inactive: 0.224 |
| TAGGTTAA | inactive: 0.0795 |
| CAACCGCC | inactive: -0.107 |
| GGGACAAA | inactive: 0.0576 |
| CTCCAGAC | inactive: -0.0913 |
| CGGTTCCC | inactive: -0.195 |
| CAAAGTCC | inactive: -0.123 |
| GCCTAACC | inactive: -0.0216 |
| TATGTGAA | inactive: 0.158 |
| GTTGGCAA | inactive: 0.0592 |
| AAGGTTCG | inactive: -0.111 |
| AGATCAAG | inactive: -0.00423 |
| TAGAGTAA | inactive: 0.0783 |
| AACTAATA | ≥ 0.215 |
| CCAGGTAA | inactive: 0.0876 |
| ACGTATCA | ≥ 0.152 |
| CCGTGTCC | inactive: 0.218 |
| CAGCAGAC | inactive: -0.0873 |
| CGGAGAAA | inactive: -0.135 |
| AACCTGCC | inactive: -0.0741 |
| CCAGGTAC | inactive: 0.0541 |

| Sequence | PBM E-score |
| --- | --- |
| GCACATAA | inactive: 0.0651 |
| CCCCTTCG | inactive: -0.25 |
| CAGCGCCG | inactive: -0.268 |
| ACAAAATC | inactive: 0.107 |
| ACTTGATG | inactive: 0.15 |
| CGAGTAGA | inactive: -0.0986 |
| AAGGGACG | inactive: -0.128 |
| ACAAAAGT | inactive: 0.149 |
| TAAAGGCA | inactive: 0.0348 |
| CAAAGCCG | inactive: -0.114 |
| GGGAATCA | inactive: 0.0611 |
| GTGGCCAA | inactive: -0.0292 |
| GGCCTTTA | inactive: -0.148 |
| GATGGGGA | inactive: -0.0926 |
| GAAGTAGC | inactive: -0.113 |
| AACCACAT | ≥ 0.212 |
| CGCTAGGA | inactive: -0.157 |
| CCTTAAGG | inactive: -0.154 |
| CGCATACG | inactive: -0.109 |
| GGGTTGAA | inactive: -0.00186 |
| ATCAGTCC | inactive: -0.143 |
| ACCTGCGT | ≥ -0.0018 |
| CCGCGTGC | inactive: -0.135 |
| CATACCAC | inactive: 0.0536 |

| Sequence | PBM E-score |
| --- | --- |
| AGGTTCAT | inactive: -0.094 |
| CGTAACTC | inactive: -0.0401 |
| AGAAGACC | inactive: -0.152 |
| CACATGGC | inactive: -0.0837 |
| GATTAAAA | inactive: 0.166 |
| AAGTTACA | inactive: 0.261 |
| CTACACGC | inactive: 0.21 |
| CTGTACTA | inactive: 0.156 |
| ACAAATGG | inactive: 0.193 |
| AGCTATCC | inactive: -0.126 |
| AGTCGCGA | inactive: -0.0131 |
| TAGTGTGA | inactive: 0.108 |
| ATGCCAAG | inactive: 0.0126 |
| ACGGGTTA | inactive: -0.00854 |
| CCAACTCG | inactive: -0.0676 |
| CCCGAGGC | inactive: -0.273 |
| CTATGGCC | inactive: -0.0994 |
| TCCATAGA | inactive: 0.00334 |
| GTACACTA | inactive: 0.208 |
| CCTGCCGA | inactive: -0.156 |
| CTTGTGTC | inactive: 0.173 |
| TCACAAAA | inactive: 0.0812 |
| CCCGGGAC | inactive: -0.249 |
| CGTTGTCC | inactive: 0.219 |

| Sequence | PBM E-score |
| --- | --- |
| ACACACCC | inactive: 0.0969 |
| ACGTATCC | inactive: -0.0744 |
| TGGATAAA | inactive: 0.0192 |
| CCCTGGAA | inactive: -0.216 |
| AGCACGGA | ≥ 0.0654 |
| CATTATTA | inactive: 0.16 |
| ACCTCGAG | inactive: -0.0337 |
| ACCTCACA | inactive: -0.0256 |
| CACCGCGG | inactive: -0.116 |
| CGGACCGA | inactive: -0.123 |
| CCTTAAAC | inactive: -0.0653 |
| CAAAGGCG | inactive: -0.00513 |
| ATTGTGAA | inactive: 0.144 |
| AGACATTA | inactive: 0.201 |
| GAGTCTCA | inactive: -0.127 |
| TGGGGACA | inactive: 0.0617 |
| GGATACAA | inactive: 0.261 |
| CCTATGAA | inactive: -0.0468 |
| CAGCCCCA | inactive: -0.179 |
| GCAAGGTA | inactive: 0.0505 |
| CGACTCAG | inactive: -0.115 |
| AAATCCCT | inactive: -0.0439 |
| CAAGATCA | inactive: 0.107 |
| ACCCCACC | inactive: -0.126 |

| Sequence | PBM E-score |
| --- | --- |
| AGGATCAA | inactive: 0.0579 |
| ATAATCTG | inactive: 0.0677 |
| ATACCCCA | inactive: -0.0662 |
| CTTTCTAA | inactive: 0.023 |
| ACTTACTA | inactive: 0.119 |
| CCGGATAC | inactive: 0.00065 |
| AATACATC | inactive: 0.294 |
| GGCCATAA | inactive: -0.0563 |
| AATCTGGA | inactive: -0.0251 |
| AGCGGCTC | inactive: -0.209 |
| AATACGAC | inactive: 0.165 |
| CCATTAGG | inactive: -0.198 |
| GTCGTTGA | inactive: 0.0744 |
| AACATTCA | inactive: 0.158 |
| GGCGGCCC | inactive: -0.352 |
| CGAACGAG | inactive: 0.109 |
| CGAGAGAG | inactive: -0.0532 |
| ACAACAGC | inactive: 0.214 |
| AGCCCACG | inactive: -0.183 |
| CTGCTTAC | inactive: 0.0437 |
| ATAAGACA | inactive: 0.239 |
| TGGGAACA | inactive: 0.215 |
| CAACTTCA | inactive: 0.115 |
| AAAGGGCA | ≥ -0.0465 |

| Sequence | PBM E-score |
| --- | --- |
| AGTTCTGA | inactive: 0.0233 |
| AGGTAATC | inactive: 0.0989 |
| ATTCCGGG | inactive: -0.133 |
| AACGTGGA | inactive: -0.015 |
| AAATGCAA | inactive: 0.0939 |
| CGACGATA | inactive: 0.0107 |
| AGACGAAG | inactive: -0.0336 |
| GTCCTATA | inactive: 0.035 |
| CATGAAGA | inactive: 0.0832 |
| AAGGGAGT | inactive: -0.0767 |
| GTGTCTAA | inactive: 0.215 |
| ACGACTTG | inactive: 0.0967 |
| AAAGTCCT | inactive: -0.0942 |
| ACGCAAAG | inactive: -0.0941 |
| GCAAACAC | inactive: 0.202 |
| CAAATCTA | inactive: 0.155 |
| GAGTCTCC | inactive: -0.141 |
| CCCTCGGC | inactive: -0.231 |
| CTGTTCTC | inactive: 0.0891 |
| ATTCCTGC | inactive: 0.069 |
| AAGTTTTC | inactive: 0.0107 |
| CGACAAAG | inactive: 0.1 |
| CGCGAACC | inactive: -0.161 |
